Laboratory results from PubChem BioAssay AID652106 (National Center for Advancing Translational Sciences (NCATS), 2013).
Among all 370,000 compounds or so, about 500 (0.14%) were called active. This list was built around the results that the source calls inconclusive (neither active nor inactive); the mix of calls is not that of the screen. Calls follow the shape of the dose curve; as a rule, active = well fitted activation curve with a large enough effect; inconclusive = small, poorly fitted or top-dose-only effect; inactive = no such curve, though single readings can be large or run the other way. Potencies of inconclusive entries are left out as doubtful fits.

Test: qHTS of alpha-syn Inhibitors; also: nearly all actives have a fitted effect of over 65% in size; as to growth rescue (activation): % of control where 0% means no effect
Conditions: Yeast expressing alpha-synuclein, BacTiter-Glo, 24 h; Potency: growth rescue; growth rescue (activation): at 46.1 µM (top of the series)
Summary of the method: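 Rescue of yeast growth: cells expressing toxic alpha-synuclein, induced in galactose at OD600 0.02, incubated with compound 24 h at 30 C. ATP luminescence quantified growth; inhibitors of toxicity appear as activators.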
Potency is read from the fitted curve at half-maximal effect; tags tell the direction and shape of the fitted curve.

Row | SMILES | Potency | growth rescue (activation)
1 | CC(=O)[C@H]1CC[C@H]2[C@@H]3CC=C4C[C@@H](OS(=O)(=O)O)CC[C@]4(C)[C@H]3CC[C@]12C | inconclusive [activator, single point] | –
2 | CCC(=NCCc1ccccc1)c1c(O)n(C2CCCCC2)c(=O)[nH]c1=O | inconclusive [activator, single point] | –
3 | O=c1c2ccccc2nc(/C=C/c2ccccc2)n1-c1ccccc1O | inconclusive [activator, partial curve] | –
4 | CCC(=O)O[C@H]1CC[C@H]2[C@@H]3CCC4=CC(=O)CC[C@]4(C)[C@H]3CC[C@]12C | inactive | –
5 | CCC12CN3CCN(CC(C3)C1O)C2 (stereo not drawn) | inconclusive [activator, single point] | –
6 | C[C@]12CCC3C(CC[C@H]4C[C@H](O)CC[C@]34C)C1CC[C@@H]2C(=O)CO (stereo partly drawn) | inactive | –
7 | COC(=O)C1=C(c2ccc(F)cc2OCc2ccccc2)C[C@@H]2CC[C@H]1N2C(=O)NCc1ccc(OC)cc1 | inactive | –
8 | COc1ccc(CC2NCC(O)C2OC(C)=O)cc1 (stereo not drawn) | inconclusive [activator, single point] | –
9 | Oc1ccc(Cl)cc1Cc1cc(Cl)ccc1O | inactive | –
10 | COc1cccc(NP(=O)(Oc2ccccc2Cl)Oc2ccccc2Cl)c1 | inconclusive [activator, single point] | –
11 | C=CCN1CC[C@@]2(C)c3cc(O)ccc3CC1[C@@H]2C | inconclusive [activator, single point] | –
12 | COC(=O)C1=C(c2cccc(C#N)c2)C[C@@H]2CC[C@H]1N2C(=O)NC1CCCCC1 | inconclusive [activator, single point] | –
13 | CC(=O)c1ccc2c(c1)C1C(Cl)C(Sc3ccccc3[N+](=O)[O-])CC1C(c1ccccc1[N+](=O)[O-])N2 (stereo not drawn) | inactive | –
14 | Cc1ccc2c(C)c3ccc4ccccc4c3c[n+]2c1 | inconclusive [activator, full curve] | –
15 | Clc1cccc(N2Cc3cc(-c4ccccc4)ccc3-n3nncc3C2)c1 | inconclusive [activator, single point] | –
16 | CNCC[C@H](Oc1cccc2ccccc12)c1cccs1 | inconclusive [activator, single point] | –
17 | COC(=O)C1=C(c2ccc(-c3ccccc3)c(F)c2)C[C@@H]2CC[C@H]1N2C(=O)N1CCC(O)CC1 | inactive | –
18 | Cc1cccc(OP(=O)(NCc2ccccc2)Oc2cccc(C)c2)c1 | inconclusive [activator, single point] | –
19 | CCCCOC(=O)COc1cc(C)cc2oc(=O)c3c(c12)CCC3 | inactive | –
20 | CN1CC2CN(Cc3ccccc3)S(=O)(=O)C2C1 (stereo not drawn) | inconclusive [activator, single point] | –
21 | Cc1ccc2nc(NC(=O)c3cccn(Cc4ccc(Cl)cc4)c3=O)sc2c1 | inconclusive [activator, single point] | –
22 | c1ccc(C(c2ccccc2)c2cccnc2)cc1 | inconclusive [activator, single point] | –
23 | N#CC1(c2ccccc2)CCN(C2CC(=O)N(c3ccc(F)cc3)C2=O)CC1 (stereo not drawn) | inactive | –
24 | CC(=O)[C@H]1CC[C@H]2[C@@H]3CC[C@H]4C[C@H](O)CC[C@]4(C)[C@H]3C(=O)C[C@]12C | inconclusive [activator, single point] | –
25 | Cc1nc2ccccc2c2c1C(=O)N(c1cccc(C(=O)O)c1)C2=O | inconclusive [activator, single point] | –

Row | SMILES | Potency | growth rescue (activation)
26 | O=C(O)c1cc[c]([Hg][Cl])cc1 | inactive | –
27 | CCOC(=O)[C@]12Cc3ccccc3[C@H]1N(C)C(=O)c1cc(OC)ccc12 | inactive | –
28 | COCCNC(=O)c1c(NC(=O)c2ccc(Br)o2)n(Cc2ccccc2)c2nc3ccccc3nc12 | inactive | –
29 | O=C1N(CN2CCOCC2)c2ccccc2C1(O)c1c[nH]c2ccccc12 (stereo not drawn) | inactive | –
30 | Cc1ccc2c(c1)NP(=S)(Oc1ccccc1)N2 (stereo not drawn) | inconclusive [activator, partial curve] | –
31 | S=P(Nn1cnnc1)(c1ccccc1)c1ccccc1 | inactive | –
32 | CCN(CC)CCCN=C(C)c1c(O)n(C2CCCCC2)c(=O)[nH]c1=O | – | inconclusive: 48% [activator]
33 | Cc1ccc(C)c(-c2nnc(NC(=O)C3=COCCO3)o2)c1 | inconclusive [activator, single point] | –
34 | Oc1c(C(Nc2cccnc2)c2ccccc2F)ccc2cccnc12 (stereo not drawn) | inconclusive [activator, partial curve, poor fit] | –
35 | Cc1nc(-c2nc(-c3c(C(=O)NNC(=O)c4ccc(Cl)cc4)noc3C)cs2)cs1 | inconclusive [activator, single point] | –
36 | FC(F)(F)c1ccc(-c2ccc3c(c2)CNCc2cnnn2-3)cc1 | inconclusive [activator, single point] | –
37 | O=C(O)c1ccccc1-c1ccc(C=C2C(=O)N(c3ccccc3)C(=S)N(c3ccccc3)C2=O)o1 | inconclusive [activator, single point] | –
38 | CC(C)(C)NC(=O)C1CC2CCCCC2CN1 (stereo not drawn) | inactive | –
39 | COc1ccccc1Oc1c(C)oc2cc(OC(=O)N(C)C)ccc2c1=O | inconclusive [activator, single point] | –
40 | O=[N+]([O-])c1ccc(NCCO)c2ncccc12 | inactive | –
41 | CCn1nc(-c2cccs2)nc2c(=O)n(C)c(=O)nc1-2 | inactive | –
42 | COC(=O)C1=C(c2ccc(OC)c(OC)c2)C[C@@H]2CC[C@H]1N2C(=O)N1CCC(C)CC1 | inactive | –
43 | COc1ccc(-n2c(SCCN(C)C)nc3ccccc3c2=O)cc1 | inactive | –
44 | CC(=O)N1CCN(c2ccc(OC[C@@H]3CO[C@@](Cn4ccnc4)(c4ccc(Cl)cc4Cl)O3)cc2)CC1 | active: 3.16 µM | –
45 | C[C@@H]1C[C@@H]2O[C@H]2/C=C\C=C\C(=O)Cc2c(Cl)c(O)cc(O)c2C(=O)O1 | active: 7.94 µM | –
46 | CC12Cc3cnoc3C=C1CCC1C2CCC2(C)C1CCC2(C)O (stereo not drawn) | inconclusive [activator, single point] | –
47 | C[C@H](CCC(=O)O)[C@H]1CC[C@H]2[C@@H]3CC[C@@H]4C[C@H](O)CC[C@]4(C)[C@H]3CC[C@]12C | active: 5.01 µM | –
48 | COc1ccc(CCn2c(O)c(C=NCc3cccnc3)c(=O)[nH]c2=O)cc1OC | inactive | –
49 | Cc1cc(OCc2nn[nH]n2)c2c3c(c(=O)oc2c1)CCCC3 | inactive | –
50 | O=C(CN1CCN(S(=O)(=O)c2ccc3ccccc3c2)CC1)NC(=O)NC1CCCCC1 | inconclusive [activator, single point] | –

Row | SMILES | Potency | growth rescue (activation)
51 | Clc1ccc(C(Cn2ccnc2)OCc2csc3c(Cl)cccc23)c(Cl)c1 (stereo not drawn) | – | inconclusive: -48.1% [activator]
52 | CCCCc1nc2ccccc2c(=O)n1-c1ccccc1[N+](=O)[O-] | inconclusive [activator, single point] | –
53 | Cc1cccc(C2=NN(c3ccc(Br)cc3)[C@@H](C(=O)N3CCOC3=O)[C@@H]2c2ccc([N+](=O)[O-])cc2)c1 | inconclusive [activator, full curve, poor fit] | –
54 | C=CCOC(Cn1ccnc1)c1ccc(Cl)cc1Cl (stereo not drawn) | inconclusive [activator, full curve, poor fit] | –
55 | C[C@]12CC[C@H](OC(=O)CCC(=O)O)CC1=CCC1C2CC[C@@]2(C)C1CC[C@@H]2OC(=O)CCC(=O)O (stereo partly drawn) | inconclusive [activator, single point] | –
56 | COC(=O)C1=C(c2ccc(Cl)c(C(F)(F)F)c2)C[C@@H]2CC[C@H]1N2C(=O)NCCOc1ccc(OC)cc1 | inconclusive [activator, single point] | –
57 | Cc1ccccc1C(=O)NNC(=S)NC(=O)COc1ccccc1 | active: 3.16 µM | –
58 | O=C1CN=C(c2ccccc2)c2cc(Br)ccc2N1Cc1cc(=O)n2ccccc2n1 | inconclusive [activator, single point] | –
59 | O=[N+]([O-])c1cccc(NP(=O)(Oc2ccccc2)Oc2ccccc2)c1 | inconclusive [activator, single point] | –
60 | Cc1ccc(-n2nnnc2SCC(=O)Nc2sc(C)c(C)c2C#N)cc1C | inconclusive [activator, partial curve] | –
61 | Cc1cccc(OP(=O)(Nc2ccc(F)cc2)Oc2cccc(C)c2)c1 | inconclusive [activator, single point] | –
62 | COCCN1C(=O)NC(=O)/C(=C\c2ccc(Br)cc2)C1=O | inconclusive [activator, single point] | –
63 | NC(N)=N/N=C/c1ccc(N2CCOCC2)cc1 | inconclusive [activator, single point] | –
64 | CCC(C(=O)Nc1ccc(Cl)cc1)N1CCCC1=O (stereo not drawn) | inactive | –
65 | C[C@H]1CCCC=CC2C[C@H](O)C[C@@H]2[C@H](O)C=CC(=O)O1 (stereo partly drawn) | inactive | –
66 | CC1=CC(C)CC(C)OC(=O)CC(c2ccc(O)cc2)NC(=O)C(Cc2c(Br)[nH]c3ccccc23)N(C)C(=O)C(C)NC(=O)C(C)C1 (stereo not drawn) | inconclusive [activator, single point] | –
67 | COc1ccccc1NS(=O)(=O)c1cc(NC(=O)c2ccc(Cl)nc2)ccc1N1CCCC1 | inconclusive [activator, single point] | –
68 | COc1cc(C)c(C(=O)CC(=O)c2c(C)cc(OC)cc2C)c(C)c1 | inconclusive [activator, single point] | –
69 | Clc1ccc(CSc2nnc(-c3ccccn3)n2Cc2ccco2)cc1Cl | inconclusive [activator, single point] | –
70 | CC(C)(Cl)[N+](=O)[O-] | inconclusive [activator, single point] | –
71 | O=c1c2ccccc2[nH]c(=S)n1-c1cccc(C(F)(F)F)c1 | inconclusive [activator, single point] | –
72 | c1ccc(N2[C@@H]3CC[C@H]2c2ccncc2C3)cc1 | inconclusive [activator, single point] | –
73 | Nc1c(Br)cc([N+](=O)[O-])cc1[N+](=O)[O-] | inactive | –
